Results as given in the supplement of paper PMC4166925.
± gives the standard deviation of the averaged measurements. The full ranking holds about 33,000 sequences; the median of “E-score (dimensionless, -0.5 to 0.5)” is about -0.046, and the highest 2% start at about 0.36. The list shows a part of the results.

Tested on: T1, SpTbr T-box DNA-binding domain (GST fusion)
T1 sequence: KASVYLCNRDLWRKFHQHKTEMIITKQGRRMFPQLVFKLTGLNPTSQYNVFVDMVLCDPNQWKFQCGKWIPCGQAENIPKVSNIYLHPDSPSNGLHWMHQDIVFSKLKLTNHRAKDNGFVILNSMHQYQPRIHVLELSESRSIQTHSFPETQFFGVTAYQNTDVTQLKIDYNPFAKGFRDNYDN
Test: PBM E-score of 8-mer (E-score (dimensionless, -0.5 to 0.5)); Tbr is Tbrain of the sea star Patiria miniata (Pm) or the sea urchin Strongylocentrotus purpuratus (Sp); higher = stronger binding preference; most listed sequences are background and not binding sites
Settings: the construct has about 5 more residues each side
Procedure: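 Universal protein-binding microarray (Agilent AMADID 016060, 60-bp probes with a 35-bp variable region) incubated with 200 nM GST-fused Strongylocentrotus purpuratus Tbr T-box DNA-binding domain (residues 362-554) in PBS pH 7.5. Scored for every ungapped 8-mer (given with its reverse complement) as E-score (range -0.5 to 0.5; >0.45 counts as bound) and Z-score of median probe intensity. Two replicate arrays (datasets 1 and 2).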
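Also: protein at 200 nM in PBS on universal double-stranded arrays.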

First: ACCCATGG
Second: CGATATTA
The “PBM E-score of 8-mer” value of the first is lower: -0.159 ± 0.011 for the first, 0.00962 ± 0.058 for the second.

CCATGAGG and GCAGAAAA are within error of each other in “PBM E-score of 8-mer” value: -0.123 ± 0.004 for the first, -0.136 ± 0.033 for the second.

Going from ATTACTGC to GTAGAGAA, the “PBM E-score of 8-mer” value falls from -0.00142 ± 0.047 to -0.1514 ± 0.0013.

First: AGCTCCCA
Second: ACCGTGCA
The “PBM E-score of 8-mer” value of the first is lower: -0.294 ± 0.068 for the first, -0.0602 ± 0.027 for the second.

AAAAACTC and CCAGAATA are within error of each other in “PBM E-score of 8-mer” value: -0.0504 ± 0.074 for the first, -0.11 ± 0.0078 for the second.

Going from AACATCTA to CCAACTAA, the “PBM E-score of 8-mer” value rises from -0.0476 ± 0.027 to 0.000295 ± 0.015.

Compared with CACGGTCC, CCACTTCA is higher in “PBM E-score of 8-mer” value: 0.0289 ± 0.043 for the first, 0.108 ± 0.019 for the second.

Compared with CAGATTCA, ACCCTTCC is higher in “PBM E-score of 8-mer” value: -0.215 ± 0.006 for the first, -0.0367 ± 0.018 for the second.

Going from GTGGTAAA to GATTCTGC, the “PBM E-score of 8-mer” value falls from 0.243 ± 0.0035 to -0.189 ± 0.022.

Going from GCGATCGA to ATCAAACG, the “PBM E-score of 8-mer” value falls from 0.116 ± 0.055 to -0.0175 ± 0.066.

First: ACTTCGGC
Second: ATTGAAAA
The “PBM E-score of 8-mer” value of the first is higher: 0.0408 ± 0.011 for the first, -0.199 ± 0.012 for the second.

Compared with ATCCCGAT, GCTAATTA is higher in “PBM E-score of 8-mer” value: -0.127 ± 0.043 for the first, 0.072 ± 0.084 for the second.

First: GAGTTTGC
Second: CTAAGCTC
The “PBM E-score of 8-mer” value of the first is higher: -0.0217 ± 0.089 for the first, -0.159 ± 0.026 for the second.

Going from ACGGCCCT to ATGGTGCG, the “PBM E-score of 8-mer” value rises from -0.129 ± 0.0058 to 0.206 ± 0.037.

Going from CACTTAAG to GCCCATGA, the “PBM E-score of 8-mer” value falls from 0.223 ± 0.03 to -0.12 ± 0.051.

Going from GCACGCCC to AATCATGT, the “PBM E-score of 8-mer” value falls from 0.155 ± 0.069 to -0.135 ± 0.015.

GGTCCTCA and AATGGCAG are within error of each other in “PBM E-score of 8-mer” value: -0.0127 ± 0.016 for the first, -0.0149 ± 0.021 for the second.

First: AGGTGACA
Second: ACATAACA
The “PBM E-score of 8-mer” value of the first is higher: 0.469 ± 0.015 for the first, 0.292 ± 0.0069 for the second.

ATATTTGA and ATGCCTTA are within error of each other in “PBM E-score of 8-mer” value: -0.174 ± 0.076 for the first, -0.254 ± 0.043 for the second.

First: AGTCACCA
Second: CCCGTCTA
The “PBM E-score of 8-mer” value of the first is higher: 0.0942 ± 0.023 for the first, -0.134 ± 0.058 for the second.

Going from GAGGGGAC to CGATTAAC, the “PBM E-score of 8-mer” value rises from -0.161 ± 0.019 to 0.108 ± 0.048.

Compared with CATTACCG, ACAGACCG is lower in “PBM E-score of 8-mer” value: -0.044 ± 0.0016 for the first, -0.146 ± 0.013 for the second.

Compared with ACACATCA, TCTGGACA is lower in “PBM E-score of 8-mer” value: 0.339 ± 0.0072 for the first, -0.143 ± 0.011 for the second.

ACTGTCTC and ACTTAAGT are within error of each other in “PBM E-score of 8-mer” value: -0.0736 ± 0.085 for the first, -0.0767 ± 0.13 for the second.

First: ACAGAGCG
Second: ATTGTGCG
The “PBM E-score of 8-mer” value of the first is lower: -0.0733 ± 0.05 for the first, 0.181 ± 0.0048 for the second.

AGGATTCG and AGCTTCGA are within error of each other in “PBM E-score of 8-mer” value: -0.148 ± 0.047 for the first, -0.102 ± 0.066 for the second.

Going from CATGAGTA to ATCACAGC, the “PBM E-score of 8-mer” value rises from 0.0509 ± 0.0025 to 0.245 ± 0.018.

First: AATGGGCC
Second: CCCTGATC
The “PBM E-score of 8-mer” value of the first is lower: -0.182 ± 0.016 for the first, -0.0811 ± 0.027 for the second.

CTGTCATA and ACCGGTCG are within error of each other in “PBM E-score of 8-mer” value: 0.122 ± 0.036 for the first, 0.0125 ± 0.092 for the second.

Going from CCCATCAC to CGAGAAGC, the “PBM E-score of 8-mer” value falls from 0.189 ± 0.031 to -0.0137 ± 0.029.

Compared with CCTGCTAC, ACTCCGCA is lower in “PBM E-score of 8-mer” value: 0.138 ± 0.06 for the first, -0.0236 ± 0.023 for the second.

First: ACAGAACA
Second: TAGGCGCA
The “PBM E-score of 8-mer” value of the first is lower: -0.0577 ± 0.043 for the first, 0.118 ± 0.0051 for the second.

Compared with CCATGGCA, GCGGAGTA is lower in “PBM E-score of 8-mer” value: 0.000675 ± 0.061 for the first, -0.147 ± 0.037 for the second.

First: ACCCGGGA
Second: CACAATCG
The “PBM E-score of 8-mer” value of the first is lower: 0.0278 ± 0.017 for the first, 0.213 ± 0.012 for the second.

First: GAAACAGC
Second: CCGCTAAC
The “PBM E-score of 8-mer” value of the first is lower: -0.0216 ± 0.11 for the first, 0.16 ± 0.031 for the second.

First: AGGTTACT
Second: CAATATCA
The “PBM E-score of 8-mer” value of the first is lower: -0.22 ± 0.055 for the first, 0.0789 ± 0.05 for the second.

Going from GTCAGAAC to CAGCGGAA, the “PBM E-score of 8-mer” value falls from -0.147 ± 0.006 to -0.252 ± 0.074.

GGAGTTAC and GACGATTA are within error of each other in “PBM E-score of 8-mer” value: 0.0424 ± 0.025 for the first, 0.0572 ± 0.03 for the second.

CCGACCCG and GAAGACGC are within error of each other in “PBM E-score of 8-mer” value: -0.073 ± 0.13 for the first, -0.00475 ± 0.024 for the second.

First: CACCCCGG
Second: AATCACAC
The “PBM E-score of 8-mer” value of the first is lower: 0.277 ± 0.018 for the first, 0.457 ± 0.011 for the second.

First: CTATCTTA
Second: GCTAAATA
The “PBM E-score of 8-mer” value of the first is lower: -0.208 ± 0.056 for the first, 0.0681 ± 0.093 for the second.

Going from CCGGGTGC to CAAATGTA, the “PBM E-score of 8-mer” value falls from 0.26 ± 0.058 to -0.206 ± 0.029.

First: CTCAACAG
Second: GGTCGGAA
The “PBM E-score of 8-mer” value of the first is lower: -0.0158 ± 0.036 for the first, 0.0715 ± 0.041 for the second.
